The results in this text go back to article PMC7819943, “Rice protein-binding microarrays: a tool to detect cis-acting elements near promoter regions in rice”.

The list shows a part of the results.

For the assay, the target named is T1, OsWOX13 (Oryza sativa, UniProt Q5QMM3 1-267).
T1 sequence: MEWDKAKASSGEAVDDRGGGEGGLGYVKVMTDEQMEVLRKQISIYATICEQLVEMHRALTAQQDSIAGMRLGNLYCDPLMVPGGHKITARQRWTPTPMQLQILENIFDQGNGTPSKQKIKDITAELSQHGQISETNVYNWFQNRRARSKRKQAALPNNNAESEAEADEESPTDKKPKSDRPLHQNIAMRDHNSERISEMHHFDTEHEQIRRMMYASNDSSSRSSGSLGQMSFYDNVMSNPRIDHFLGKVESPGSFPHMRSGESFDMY
Kind of assay: protein-binding microarray (RPBM); PBS, 2% BSA, 51.3 ng/ul salmon testes DNA, 50 uM zinc acetate, 200 nM TF, 25 C, 1 h; high values mean tight binding. The conditions noted are these: protein: recombinant; tags: N-terminal polyhistidine and DsRed monomer fusion (pET32a); label: CyDye5-dUTP incorporated in the synthesized complementary strand; 3' TTTTT single-stranded linker to array surface; dsDNA, one strand shown. A digest of the protocol:
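Using Ni–NTA, transcription factors fused N-terminally to polyhistidine and DsRed were purified after expression in E. coli BL21-CodonPlus. These were incubated at 200 nM with a blocked, double-stranded custom Agilent array for 1 h at 25 °C in a buffer containing 50 µM zinc acetate, and the array was washed. The binding signal is per-feature fluorescence intensity (arbitrary units) on an Axon 4000B scanner.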
Take “GGTAACTGGTTAGGAAAATGATACAAGTCACATAATCAGGCGGAGTCACCTAGTGCAG”: the binding signal was 4670 fluorescence intensity (a.u.).

In the case of “CCATGTTTAATACTCTAAATTAGCATCCAAACATCCGATGCGGAGTCACCTAGTGCAG”, the binding signal was 3560 fluorescence intensity (a.u.).

“GTGATAGATTTGCATCCCTCTATATATCAATGGATATTATCGGAGTCACCTAGTGCAG”: the binding signal was 20100 fluorescence intensity (a.u.).

With “CTTGAGATTGTAAACAGATGGCCATTGTCTGTTGTGTCAGCGGAGTCACCTAGTGCAG”, the binding signal is 8650 fluorescence intensity (a.u.).

Consider “ACGCTTGATCTGAGCTATAATTTGTTCACCGGTGAATTGCCGGAGTCACCTAGTGCAG”, for which the binding signal is 3600 fluorescence intensity (a.u.).

On to “TAATAAGGGATAATTGCTTATTTCACCCTATTTTAAAGCCCGGAGTCACCTAGTGCAG”, for which the binding signal is 3490 fluorescence intensity (a.u.).

“TGTTAATTTCATGCTAGGTAGCATAAAGACTCTGACATACCGGAGTCACCTAGTGCAG”: the binding signal is 4690 fluorescence intensity (a.u.).

In the case of “ATTAGCGCATGATTAATTGATTATTAACTATTTTAAACTTCGGAGTCACCTAGTGCAG”, the binding signal is 27400 fluorescence intensity (a.u.).

In the case of “GATAGATAGATAGATAGATAGATAGATAGATACTAGTACACGGAGTCACCTAGTGCAG”, the binding signal is 37000 fluorescence intensity (a.u.).

As to “ACCCGATTTATTATTTTAGTCAAATCCCACGGTTAAGGTTCGGAGTCACCTAGTGCAG”, the binding signal is 4530 fluorescence intensity (a.u.).

For “CTAATTAATGACGCGTCCATTCGGATTTCGAGAATTCACACGGAGTCACCTAGTGCAG”, the binding signal is 9920 fluorescence intensity (a.u.).

With “CGTCAATCCAGTGATCCGTCTCTTTCCTGCGTACTATATCCGGAGTCACCTAGTGCAG”, the binding signal was 4110 fluorescence intensity (a.u.).

With “ATACAAACCACTAGTAATTGACCCCACAGGTTTAAATTCCCGGAGTCACCTAGTGCAG”, the binding signal is 6340 fluorescence intensity (a.u.).

As to “CTAGCTCCAAATCATTTATATCCAATCTAATAATTTATTCCGGAGTCACCTAGTGCAG”, the binding signal was 4680 fluorescence intensity (a.u.).

On to “TTTGTCAATTGATGTATACATATGTGCTTTGTGTTCCTACCGGAGTCACCTAGTGCAG”, for which the binding signal is 12200 fluorescence intensity (a.u.).

Turning to “CGTCGCCGCAGTTTAATTGGCAGCTCACACACGCACGAGCCGGAGTCACCTAGTGCAG”, the binding signal is 8320 fluorescence intensity (a.u.).

Regarding “ACCATGATTTGCCTCCGAGCCGCCTTCCCCTTGACCTCCTCGGAGTCACCTAGTGCAG”, the binding signal is 18700 fluorescence intensity (a.u.).

For “CCATAATTGCGTATATATAAACACATGAACATCAGCAGCACGGAGTCACCTAGTGCAG”, the binding signal is 33200 fluorescence intensity (a.u.).

On to “GCTTGACAGCCACACTAACCAGAAGGAGGCCACACCCACACGGAGTCACCTAGTGCAG”, for which the binding signal is 16200 fluorescence intensity (a.u.).

As for “AGTTAATTACTGCCTCTACTATTGATCATGCATGTAAGATCGGAGTCACCTAGTGCAG”, the binding signal was 31100 fluorescence intensity (a.u.).

As for “GGAAATAATTATCATATGGTTCTTTGGATCAAGGAATGGCCGGAGTCACCTAGTGCAG”, the binding signal was 21100 fluorescence intensity (a.u.).

On to “GCGTAATTAGGCTCAAAAGATTTGTTTTGCAATTTGCGTGCGGAGTCACCTAGTGCAG”, for which the binding signal was 34100 fluorescence intensity (a.u.).

As to “AATGTTAAAACTTAATTTTAGATTTGATTTTAGGCTTCTTCGGAGTCACCTAGTGCAG”, the binding signal was 5830 fluorescence intensity (a.u.).

For “AAAACGTGGTGATTGTTTGGTTATCCTCCAATATGTCACTCGGAGTCACCTAGTGCAG”, the binding signal is 12800 fluorescence intensity (a.u.).

In the case of “CCGAATGACATATAGAAATTGGCATTTTAGGATGGGCAAACGGAGTCACCTAGTGCAG”, the binding signal is 6670 fluorescence intensity (a.u.).

Take “CTAAATTTTACAAGATTTTGTTGGTTACGGATAATACTGACGGAGTCACCTAGTGCAG”: the binding signal was 8910 fluorescence intensity (a.u.).

For “ATAAATTTTAAATAGTTGGATTGGGACAAATAGAGTTGATCGGAGTCACCTAGTGCAG”, the binding signal is 17300 fluorescence intensity (a.u.).

Take “TATAAATTTGACAATAAATATAACAATCAAATTTATCATACGGAGTCACCTAGTGCAG”: the binding signal is 4980 fluorescence intensity (a.u.).

As to “GCTTACAGTCTTACACTAATTTATACATTATTCTTGGTCCCGGAGTCACCTAGTGCAG”, the binding signal was 5110 fluorescence intensity (a.u.).

Regarding “TGCTTGAAATTGAAAACCTCAATGTCAAATCAGTCTTATTCGGAGTCACCTAGTGCAG”, the binding signal was 4900 fluorescence intensity (a.u.).

Consider “CTCATGATTCTGATTATAATGGCTAAAACATTAAGCGCGACGGAGTCACCTAGTGCAG”, for which the binding signal was 13500 fluorescence intensity (a.u.).

With “TGCCATTAACTTTTAAACATATATTTAATCGTGTAAATAACGGAGTCACCTAGTGCAG”, the binding signal was 3380 fluorescence intensity (a.u.).

Turning to “GTTGTATATGTAATTGATGATGCACTGTCTGAACTTCAGACGGAGTCACCTAGTGCAG”, the binding signal is 20600 fluorescence intensity (a.u.).

Regarding “AACAAACCTTACCAATTAAGTTATGTCCATATCTTAATGGCGGAGTCACCTAGTGCAG”, the binding signal is 6200 fluorescence intensity (a.u.).

For “TTGCATCAAATTTAAACACTCATCAAGATTCACGCACTAACGGAGTCACCTAGTGCAG”, the binding signal is 3290 fluorescence intensity (a.u.).

For “TCAAATCAGGGCGCAATTAGGCTTCAAAGATTCGTCACGCCGGAGTCACCTAGTGCAG”, the binding signal was 3850 fluorescence intensity (a.u.).

As to “ATTACAAATAGATGGAGCACGTCCCTAGAGAGTAGCAGCTCGGAGTCACCTAGTGCAG”, the binding signal was 3170 fluorescence intensity (a.u.).

Consider “CTAATTAATTCATCATTAGCAAATGTGTACTGTACCACCACGGAGTCACCTAGTGCAG”, for which the binding signal was 36800 fluorescence intensity (a.u.).

Turning to “TTAAATTGCAAAATTGAACATTTAACTCAATTGTGTATTTCGGAGTCACCTAGTGCAG”, the binding signal was 31700 fluorescence intensity (a.u.).

On to “TGCAATTTTCAATCATACTATTTCTGATAAAGTTGTCAAACGGAGTCACCTAGTGCAG”, for which the binding signal was 20900 fluorescence intensity (a.u.).

On to “TAGATTACTTCATTAATTGGCACGGCTTGTGATCAAACAACGGAGTCACCTAGTGCAG”, for which the binding signal is 13700 fluorescence intensity (a.u.).

On to “AATAATGAATTTAAAATAAAATAAAACTGCATGCAAGCGACGGAGTCACCTAGTGCAG”, for which the binding signal was 5650 fluorescence intensity (a.u.).

Consider “TGCAAATTGCGTAAGATTATATTAGTCAAAGGGCACTGTGCGGAGTCACCTAGTGCAG”, for which the binding signal was 22400 fluorescence intensity (a.u.).

As for “ACACAAATTCAATTAGATAACTAATTTCAGACTCTGTCAACGGAGTCACCTAGTGCAG”, the binding signal was 27100 fluorescence intensity (a.u.).

For “ACTCAGTTTAAATGGCATTTTACCACAATCTGTGTCCATGCGGAGTCACCTAGTGCAG”, the binding signal is 4100 fluorescence intensity (a.u.).

As to “GCAGCCGCAGCCAATCAGCTACGCAGACAGCAAGCAACAGCGGAGTCACCTAGTGCAG”, the binding signal is 8080 fluorescence intensity (a.u.).

In the case of “AGTTGACACTTGACAGCGACAAATTGCTGAGACGCGATTACGGAGTCACCTAGTGCAG”, the binding signal is 9260 fluorescence intensity (a.u.).

In the case of “TTGTGATAATGAAGACACTAAACCTATAGTTTTGTGATAACGGAGTCACCTAGTGCAG”, the binding signal is 13200 fluorescence intensity (a.u.).

Consider “GGGGACTATTCAAATTGATGTTATTTTCAACCATATTATTCGGAGTCACCTAGTGCAG”, for which the binding signal was 7030 fluorescence intensity (a.u.).

Turning to “TTTAATTAAATACTACTTCCTCCGTATTTTAATGTATGACCGGAGTCACCTAGTGCAG”, the binding signal is 24900 fluorescence intensity (a.u.).

For “GAAATTTGAATAAGATGTGATTAATGGGATAAGTAGTACTCGGAGTCACCTAGTGCAG”, the binding signal is 7210 fluorescence intensity (a.u.).

As for “TGCTTATCTAAATTGTAACATATTATTTTGAGTTGGTGACCGGAGTCACCTAGTGCAG”, the binding signal was 3590 fluorescence intensity (a.u.).

“CACTGCTAGATCTTGTTCAATCATTGGAATCTAATATTTTCGGAGTCACCTAGTGCAG”: the binding signal was 3810 fluorescence intensity (a.u.).

For the sequence “CCGTGACAAGTGACTCAAATATGTTTCTTTTATTCCATTTCGGAGTCACCTAGTGCAG”, the binding signal was 3560 fluorescence intensity (a.u.).
